Assay results from the supplement of paper PMC3334620.
In all, about 33,000 sequences were measured (“E-score (-0.5 to 0.5)”: median about -0.013, highest 2% from about 0.3 on). This is one part of the list.

Each sequence was assayed against T1, Msn1 (UniProt P22148) (assay: PBM E-score (8-mer binding enrichment) (E-score (-0.5 to 0.5)); higher = stronger / more preferred TF binding; most listed sequences are background and not binding sites). Conditions: protein concentration: 200 nM; construct: GST-full length.
T1 sequence: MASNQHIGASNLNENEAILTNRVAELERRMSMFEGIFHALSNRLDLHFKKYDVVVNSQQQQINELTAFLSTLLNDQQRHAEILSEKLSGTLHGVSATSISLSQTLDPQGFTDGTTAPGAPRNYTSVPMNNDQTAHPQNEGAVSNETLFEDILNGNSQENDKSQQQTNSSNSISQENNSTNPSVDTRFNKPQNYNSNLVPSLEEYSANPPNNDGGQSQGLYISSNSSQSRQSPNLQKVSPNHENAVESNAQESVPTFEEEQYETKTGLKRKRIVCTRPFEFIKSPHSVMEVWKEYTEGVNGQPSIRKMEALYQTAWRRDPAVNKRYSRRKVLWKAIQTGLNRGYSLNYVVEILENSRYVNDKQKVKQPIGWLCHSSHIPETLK
Summary of the method: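 Yeast transcription factors, full-length or as DNA-binding domains, were expressed with a GST tag using PURExpress in vitro transcription/translation. At about 100-200 nM they were applied to universal all-10-mer Agilent arrays, double-stranded by primer extension on fresh or once-stripped slides. Fluorescent anti-GST detected bound protein, and masliner normalised the scans. E-scores for ungapped eight-base words, pooled with reverse complements, came from the Universal PBM Analysis Suite.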

Sequence | PBM E-score
CAGACGCG | -0.0795
GCCTTTGA | 0.0544
ACTTAGGA | -0.00431
GTAGTTAA | -0.0573
GGGGCCAA | -0.214
AGAGCTGG | -0.017
GGAGCCCA | -0.274
GACTGTAA | 0.0195
ATCGGTTC | 0.0707
AGCCTTCC | -0.323
TACGGCTA | -0.145
CAGATGAG | -0.0027
AACGGCTT | -0.151
GCAGGTGA | -0.134
CTCATGTC | 0.27
AGCCATGG | -0.146
TAAACCGA | 0.054
CGTGGGGA | 0.0354
AGGGCCAT | -0.246
GTTCGTCA | -0.192
AGCCCTGC | -0.252
CTAGGGCC | -0.0781
CCGATCAC | 0.0887
AGGGGGAC | -0.305
ACCGCTTC | -0.244

Sequence | PBM E-score
CCAGGTGA | -0.113
ATGGTATG | -0.0931
CCAAATAA | 0.0707
GTATCTTA | 0.17
AAATCAAG | 0.0727
ACATGACA | 0.297
CCAATCTC | 0.05
ACCTAACC | 0.00159
TCGGCAGA | 0.0685
ACCCAACC | -0.107
AAGAACTT | 0.198
ATAATGAT | -0.0727
CTTTCTCA | 0.165
GAAAAAAC | 0.223
CTTGATGC | -0.174
AGATGGAG | 0.0113
AGGTGCCA | -0.0792
GAGTAGGC | -0.169
CACCTGGC | -0.188
ATACGGTA | -0.0643
ATACCACA | 0.0813
GCGGTAGC | 0.041
CGAGACCC | -0.0936
CGTGTTCC | -0.0397
CTTCGTTC | -0.0446

Sequence | PBM E-score
GCGTCTCC | -0.0593
GAGACGAA | -0.0182
ATTCTCTC | 0.088
ATCATCAA | 0.0569
TCGATGAA | -0.0265
CGCTCGTA | -0.227
TAACTGCA | -0.0504
CTACAATA | 0.0926
AAGTGAGA | 0.0104
TAGCGGGA | -0.174
GCTACAAC | -0.168
ATTCAACC | 0.0516
TAAGTGGA | -0.00503
AGTCGCTG | -0.0587
CCGGAAGC | -0.0285
ATCTCCAA | 0.0293
ACAGTAAG | -0.0118
GTCCCTCA | 0.0279
CGGTCTCA | -0.0128
GTCAAGCA | -0.198
AGTTAAAT | 0.0476
GGGCATGA | -0.269
CTATATTC | 0.0379
ACGAGGCT | 0.0912
CTAATGGA | 0.0103

Sequence | PBM E-score
CCCCGATC | -0.221
AACTGGTA | -0.176
TTTCAAAA | 0.206
TAGGGGGA | -0.278
GTTCCGAA | 0.286
AGTACACT | -0.0325
TCAGCAGA | 0.0438
GTGTTTTA | 0.0163
CCTCCGGA | 0.102
AACGAGGT | -0.0403
AACACCAG | -0.113
CCGAGCAG | 0.065
ATTAACCA | 0.0342
AGGGACTC | -0.223
AGGGCGGA | -0.176
ACCAAGTG | -0.216
ATGTCGTA | 0.395
AGAACCTG | -0.122
GATTAAAC | 0.0815
CGTGTCCA | 0.424
TAACGATA | 0.0612
AATGGTGT | 0.0502
CCTGTCCC | 0.282
ATATTTCC | 0.0237
TATGCCGA | 0.0169

Sequence | PBM E-score
GTCGGCGA | -0.0425
TGATCGAA | -0.136
CAGCTCAG | -0.126
ATGGCATG | 0.0429
AGCTAAAA | 0.0229
TAGAGCAA | -0.0788
ATTCGAAG | 0.00246
CATTTTAG | 0.179
CGCTCCAC | -0.204
ACAGCCTC | -0.182
TCTTTACA | 0.0499
GCACCATA | -0.0776
CTGCCGTA | -0.0818
TATCACAA | -0.00162
CTTTTGTC | 0.455
CCCTTCAC | -0.269
GGTTCGTA | -0.0596
AAGGCTGT | -0.252
CGCGGTAA | 0.0291
AGGGCCTC | -0.236
GGTCGAAA | -0.277
GACCCTAC | -0.19
GGTACTCA | -0.089
ATAGCGAT | -0.0141
CAATCGGC | 0.0138

Sequence | PBM E-score
ACAAATTC | 0.306
TGTGCCAA | 0.148
GCCAAACA | -0.158
CCTGACAG | -0.105
GCCGCACC | -0.23
CACAATAA | -0.00093
CCAAGCTC | 0.133
CAGTATTC | -0.0522
CTGTACGC | -0.0179
GCCGAAAA | 0.3
AGTCAACT | -0.213
CTAGTGCA | 0.175
GCAAAGCA | -0.137
GCTCGGCC | -0.164
CTCCCGTC | -0.0977
ACAGTACT | 0.103
AGGGCTCA | -0.2
AATCGGGA | 0.25
CTATCGAC | -0.111
TATGGCAA | -0.008
GACGGCTC | -0.211
CTGGAGCA | -0.138
CCTATCTC | -0.183
AAATACCC | -0.0057
GCCGTCAA | -0.0445

Sequence | PBM E-score
CCTGATCC | -0.169
CGAGCTTA | -0.0549
AAGCTTGT | 0.0725
CTTCTGCC | -0.117
GTTTGGCA | -0.0269
AAGGTTTG | -0.0327
AGCGACAA | 0.301
AAGTTCGA | 0.168
CTACGTAA | -0.0509
ATGCCTGC | -0.145
CATACAGA | 0.182
ATGGAGGC | -0.327
AACCGGAG | 0.0376
CTGCAAAG | -0.202
GGGGAGCA | -0.414
GCCGCCAC | -0.269
CTATCCTA | -0.0856
CGGTAATC | -0.0925
AGCATCCA | -0.0284
GCAAATCC | 0.116
ATGGTTAG | 0.0359
CTCCACAC | -0.205
